In patent US6080791A, “Method of treating a viral condition by inhibiting membrane fusion” (priority 1992, dated 2000):

Tested on: intact virions and their receptors on red blood cell membranes
Assay: Hemagglutination (virus-cell binding)
Procedure: Compounds inhibiting the conformational change of hemagglutinin were tested for their ability to inhibit fusion and infectivity. Assays measuring these processes depend on viral recognition of cellular receptors. To rule out the possibility that any observed inhibition in these experiments is due to inhibition of virus-cell binding, hemagglutination tests were performed with some of the compounds.
Serial 2-fold dilutions of inoculum in PBS were placed in a 96 well plate with V-shaped wells. An equal volume of 0.5% washed human red blood cells in PBS was added to each. Wells were covered and incubated at 4° C. After 4 hours the last well agglutinated was recorded.
Serial 2×dilutions of virus were done in a 2×solution of compound/PBS. Addition of the rbcs halved the compound concentration in each well.

| SMILES | effect on hemagglutination (1 mM) | further results |
| --- | --- | --- |
| O=C1C=CC(=O)C2C3C=CC(C3)C12 (centres unmarked) [Compound 83K, 4A,5,8,8A-tetrahydro-5,8-methano-1,4-naphthoguinone] | no effect on binding | – |
| COC(=O)C1C=CCC2C(=O)C=CC(=O)C12 (centres unmarked) [Compound 97, methyl 5,8-dioxo-1,4,4A,5,8,8A-hexahydro-1-naphthalenecarboxylate] | – | effect on hemagglutination (0.1 mM): no effect on binding |
| Oc1ccc(O)c2ccccc12 [Compound 110, 1,4-dihydroxynaphthalene] | no effect on binding | – |
| O=C(O)C1C=CCC2C(=O)C=CC(=O)C12 (centres unmarked) [Compound 91, 5,8-dioxo-1,4,4A,5,8,8A-hexahydro-1-naphthalene carboxylic acid] | no effect on binding | – |
| CC(C)(C)c1cc(O)ccc1O [Compound 117, tert-butylhydroquinone] | – | effect on hemagglutination (10 μM): no effect on binding |
